Results as given in the supplement of paper PMC3334620.
Whole data set: some 33,000 sequences, median “E-score (-0.5 to 0.5)” near -0.043, cut for the highest 2% near 0.37. The list shows a part of the results.

biological target: T1, Upc2 (UniProt Q12151); test: PBM E-score (8-mer binding enrichment) (E-score (-0.5 to 0.5)); higher = stronger / more preferred TF binding; most listed sequences are background and not binding sites; details: protein concentration: 200 nM; construct: GST-full length
T1 sequence: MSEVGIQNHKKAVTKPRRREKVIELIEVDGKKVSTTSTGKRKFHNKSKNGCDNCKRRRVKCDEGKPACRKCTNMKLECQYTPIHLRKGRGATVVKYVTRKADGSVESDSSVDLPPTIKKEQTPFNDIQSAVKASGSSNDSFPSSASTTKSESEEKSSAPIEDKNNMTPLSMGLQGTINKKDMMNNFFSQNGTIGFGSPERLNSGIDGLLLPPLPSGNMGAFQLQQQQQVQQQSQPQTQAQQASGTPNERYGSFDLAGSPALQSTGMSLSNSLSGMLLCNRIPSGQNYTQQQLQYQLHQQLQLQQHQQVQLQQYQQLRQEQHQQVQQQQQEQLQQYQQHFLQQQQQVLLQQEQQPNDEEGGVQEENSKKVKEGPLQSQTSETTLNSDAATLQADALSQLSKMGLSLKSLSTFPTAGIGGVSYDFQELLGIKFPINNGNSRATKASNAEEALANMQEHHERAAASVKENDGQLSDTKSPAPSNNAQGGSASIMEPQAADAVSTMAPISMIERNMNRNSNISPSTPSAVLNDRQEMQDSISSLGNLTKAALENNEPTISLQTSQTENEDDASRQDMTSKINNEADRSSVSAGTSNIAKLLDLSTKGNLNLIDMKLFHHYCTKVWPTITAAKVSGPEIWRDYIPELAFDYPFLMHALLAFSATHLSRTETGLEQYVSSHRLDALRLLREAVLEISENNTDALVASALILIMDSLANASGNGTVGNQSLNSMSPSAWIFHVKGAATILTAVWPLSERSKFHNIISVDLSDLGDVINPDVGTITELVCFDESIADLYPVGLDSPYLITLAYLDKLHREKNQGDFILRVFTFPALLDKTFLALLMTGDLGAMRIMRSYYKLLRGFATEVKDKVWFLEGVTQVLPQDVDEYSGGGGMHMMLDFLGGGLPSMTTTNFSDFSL
Procedure: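 Universal 'all 10-mer' protein binding microarrays (Agilent AMADID 015681) probed with GST-tagged S. cerevisiae TFs (full-length or DBD) made by in vitro transcription/translation (PURExpress), about 100-200 nM. Bound TF was detected with fluorescent anti-GST. Each ungapped 8-mer (which stands for itself and its reverse complement) is scored by the PBM enrichment score (E-score), a modified Wilcoxon-Mann-Whitney statistic from -0.5 to +0.5, computed with the Universal PBM Analysis Suite. Scale: above 0.35 generally sequence-specific binding.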

Row | Sequence | PBM E-score
1 | ATAGATGC | 0.0325
2 | GTAAAGCA | 0.223
3 | ATAAATAC | 0.198
4 | CCGGGCCA | -0.305
5 | CCGCCTAA | 0.034
6 | GCTGCCGA | -0.0539
7 | GTACTCTA | -0.0205
8 | ACAACGCT | -0.0148
9 | AGTAGGTA | -0.0576
10 | CTTTCGCC | -0.118
11 | GAACACTC | 0.217
12 | GATCGAAA | 0.153
13 | GAAGATTC | -0.0218
14 | AAGAGTTC | 0.0025
15 | GAAAGTTC | -0.0894
16 | ATAAGGTA | -0.0315
17 | TCCTTCGA | -0.089
18 | AGCTTGGA | -0.139
19 | ACAGGTCC | -0.175
20 | AATATCAA | -0.0756
21 | CGGTAGAC | 0.105
22 | AATTGCGA | 0.0229
23 | AACGTCCT | 0.137
24 | AGACAAGA | -0.0842
25 | TAACACAA | 0.0323

Row | Sequence | PBM E-score
26 | GAATGTAC | 0.0753
27 | CCCCATTA | -0.164
28 | ATTTACAC | -0.0758
29 | CCGGCCAG | -0.188
30 | AGATCTTC | -0.0969
31 | GATAGAAC | 0.0666
32 | ATTGCTGA | -0.0921
33 | ATCCGGAC | -0.132
34 | CTGTAATA | 0.0367
35 | ATAAAAAT | -0.05
36 | CCCGGGGA | -0.25
37 | CTCGAGCC | 0.135
38 | AAGAACGC | 0.0594
39 | ATTGGTTG | -0.209
40 | ATACTAGC | 0.0623
41 | GATGACTA | -0.0763
42 | CAATGTAC | 0.107
43 | GGATCAAC | -0.104
44 | GATTTCCC | 0.039
45 | CGGCTAAC | 0.035
46 | ATTAGGAA | -0.00917
47 | AACGTTAA | 0.264
48 | AGCGGACT | -0.201
49 | ACCTTGTA | 0.0207
50 | CACGAAAA | 0.134

Row | Sequence | PBM E-score
51 | GATCCCTA | -0.041
52 | GTCGGTGA | -0.0693
53 | AGGCCTAA | -0.137
54 | AACTCCCA | -0.11
55 | ACACCTTG | -0.141
56 | CCCCTGTC | -0.278
57 | CCGTTTTC | 0.00941
58 | ATAATATG | 0.0376
59 | CGCTATCA | 0.0106
60 | GGATCGAA | 0.211
61 | CAACCGTA | 0.295
62 | AAATAGCG | 0.0353
63 | GACGCACC | -0.113
64 | CAAAACTA | -0.0561
65 | AAGCTGCC | -0.233
66 | AATCCTCA | -0.216
67 | AGGATCCA | -0.122
68 | AAGCTCAT | -0.139
69 | CCTCACCC | -0.0906
70 | GCTCTCAC | -0.32
71 | GCAAATCA | 0.0183
72 | ATATCGTC | 0.0922
73 | AACCTCTT | 0.0154
74 | AACGCTAC | 0.105
75 | ACGCTGCA | -0.0192

Row | Sequence | PBM E-score
76 | CCGAGAAC | 0.117
77 | AGGTCCGG | -0.129
78 | ACAGAACG | 0.265
79 | AAGTCCGC | -0.0344
80 | CTCCGCTA | -0.157
81 | GCTACCGA | 0.0302
82 | CGCCTGCC | -0.133
83 | TCTCCACA | -0.204
84 | CACTGCGG | -0.111
85 | CAGAGGCC | -0.111
86 | AACAATGC | -0.0237
87 | AAGGACCC | -0.195
88 | AAGACCCT | -0.239
89 | GAAAATCC | 0.122
90 | ACGAGATA | 0.355
91 | GTATGGAC | 0.0685
92 | GCGCACGA | -0.0283
93 | GGATATCA | -0.0438
94 | CCGTCGTA | 0.457
95 | CCTTAGAG | -0.235
96 | CCTATTCA | -0.242
97 | AACTCCCC | -0.0372
98 | TCTACTCA | -0.238
99 | CCGTAATC | 0.039
100 | CACTTGGC | -0.167

Row | Sequence | PBM E-score
101 | TTATAAAA | 0.041
102 | GAACTGTC | 0.06
103 | ACTCGCAG | -0.0889
104 | AGGCGATG | -0.204
105 | CGAACTCG | 0.196
106 | CCTCAGCA | -0.21
107 | GAGAGGAC | -0.242
108 | CGTGGTTC | -0.0882
109 | CACCCGTG | -0.121
110 | AATTCCCC | -0.257
111 | CTTTAGAC | -0.0638
112 | GTCTATTA | -0.0335
113 | ACTGCCCC | -0.189
114 | AAGTTCGC | 0.141
115 | TCAGTAGA | -0.141
116 | AAGTACAT | -0.00422
117 | GGAATGAA | 0.0692
118 | TCCTGTCA | 0.102
119 | CTAGGAAG | -0.409
120 | GCTCAATA | -0.0432
121 | CCAGATAC | 0.125
122 | CAGAATAA | -0.0364
123 | AGGCCTAG | -0.168
124 | AGTTCAAA | -0.124
125 | AACCCTAT | 0.0268

Row | Sequence | PBM E-score
126 | GCATTATA | -0.0395
127 | ATAAATAG | -0.0685
128 | CTGCAGAC | -0.0383
129 | GCTCGGCA | -0.0335
130 | CTGAGTAC | -0.0738
131 | CCGGCATA | -0.0171
132 | CGTCTAAA | 0.148
133 | GGTGCGAC | 0.0784
134 | CAATCTAC | -0.131
135 | CGAACAAG | 0.142
136 | ATTAGAGA | -0.00567
137 | GCATGATA | -0.0914
138 | CCAGTCAG | -0.284
139 | ACCACTAA | 0.154
140 | ACGACAAT | 0.341
141 | AAGGTGGT | -0.115
142 | ACACCCGT | 0.197
143 | GTCCGAAA | 0.0978
144 | CGCAAGGA | -0.0287
145 | GGGCTATA | -0.0146
146 | AGTGTGTC | 0.0799
147 | AAGTTAGC | 0.032
148 | ATATTCCG | -0.039
149 | CGCGGAGC | 0.0452
150 | CATAGTGC | -0.0902

Row | Sequence | PBM E-score
151 | GGTTTGAA | 0.117
152 | GCGGCACC | -0.0164
153 | CGCTCTTA | 0.232
154 | CTGACCCA | -0.26
155 | CCCGTTGC | -0.113
156 | GCTGCGAC | -0.172
157 | GCAAGTTA | -0.0991
158 | TGTGCACA | 0.0442
159 | CAACGTAG | -0.0391
160 | ATACGACG | 0.483
161 | GCAGACGA | 0.122
162 | CCGTTAGA | -0.0488
163 | ATACCCGC | 0.0747
164 | CTACGGGA | 0.00845
165 | AGTCGAAG | -0.273
166 | ACCTCGCT | 0.221
167 | ACCGCACT | 0.174
168 | CCTATTTA | -0.202
169 | AGGAACCC | 0.0161
170 | AATAACAG | 0.0645
171 | CAACAGGA | -0.231
172 | TATATAGA | 0.201
